According to PubChem BioAssay AID651820 (National Center for Advancing Translational Sciences (NCATS), 2012):
About 12,000 (3.5%) of roughly 340,000 compounds were called active. Inconclusive means that the source gave no clear call. Such entries were picked first, then a sample of the others. Calls come from the whole dose curve; as a rule, active = well fitted inhibition curve with a large enough effect; inconclusive = small, poorly fitted or top-dose-only effect, or another doubt; inactive = no such curve, though single readings can be large or run the other way. No potency is given beside an inconclusive call; the fits are too rough.

Assay: qHTS Assay for Inhibitors of Hepatitis C Virus (HCV)
Conditions: Huh7.5.1 HCVcc-Cre (HCVcc is cell-culture hepatitis C virus) infection, luciferase reporter, 44 h; activity change, negative = inhibition: at 41.8 µM (top of the series) unless noted
Method in brief: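 Infectious HCVcc-Cre (~0.5 moi) was added to cells just after compound, with cells seeded 4 h earlier at 1,000 per well. Luciferase activity after 44 h culture reported infection; substrate was incubated 15 min at room temperature before reading.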
% is set by controls: 0 for no effect and ±100 for the full control effect; potency is the fitted concentration of half-maximal effect; tags give direction and shape of the fitted curve.

Row | SMILES | activity change, negative = inhibition | Potency
1 | CC(C)CC(NS(=O)(=O)c1ccc2[nH]c(=O)c(=O)[nH]c2c1)C(=O)O (centres undefined) | inactive: 6.19% | 
2 | CC(C)(C)c1ccc(NC(=O)NC2CCCc3ccccc32)cc1 (centres undefined) |  | inconclusive [inhibitor, full curve]
3 | O=C(CCC1N=C2c3ccccc3N=C(SCc3ccccc3Cl)N2C1=O)NCc1ccco1 (centres undefined) |  | inconclusive [inhibitor, single point]
4 | Cc1ccc(Nc2nnc(SCC(=O)Nc3cccc(S(=O)(=O)N4CCCCC4)c3)s2)cc1 |  | inconclusive [inhibitor, single point]
5 | CN1CCN(c2ccc(S(=O)(=O)N3CCOCC3)cc2NC(=O)COc2ccc(C#N)cc2)CC1 | inactive: 4% | 
6 | CSCC[C@H](NC(=O)COc1ccc(Cl)cc1)C(=O)N1CCC2(CC1)NCCc1[nH]cnc12 |  | inconclusive [inhibitor, single point]
7 | FC(F)(F)c1cccc(N2CCN(CC3CC4C=CC3C4)CC2)c1 (centres undefined) |  | inconclusive [inhibitor, full curve, poor fit]
8 | Cc1cccc(NC(=O)c2cc3c(s2)-c2c(C)cccc2OC3)n1 |  | inconclusive [inhibitor, full curve]
9 | CCOC(=O)C1Oc2ccccc2C(c2cccc3ccccc23)=C1C(=O)OC (centres undefined) |  | inconclusive [inhibitor, single point]
10 | O=C1NC2(CCCc3ccccc32)C(=O)N1Cc1nnc(-c2ccccc2Br)o1 (centres undefined) |  | inconclusive [inhibitor, single point]
11 | COc1ccc(N2CCN(C(=O)CNC(=O)c3ccc(C(C)(C)C)cc3)CC2)cc1 |  | inconclusive [inhibitor, single point]
12 | Cc1ccccc1NS(=O)(=O)c1ccc(C(=O)NCC2(N3CCOCC3)CCCCC2)cc1 | inactive: -26.4% | 
13 | C=CCn1c(SCC(=O)c2[nH]c(C)c(C(=O)OCC)c2C)nc2scc(-c3ccc(OC)cc3)c2c1=O |  | inconclusive [inhibitor, partial curve]
14 | CC(NC(=O)Cn1nc(-c2ccccc2)c2ccccc2c1=O)c1ccccc1 (centres undefined) |  | inconclusive [inhibitor, single point]
15 | C=C[C@@H]1c2ccccc2N(S(=O)(=O)c2ccc(C)cc2)[C@H](c2ccccc2C(F)(F)F)C1(C#N)C#N | inactive: -0.0008% | 
16 | COC(=O)c1ccccc1NC(=S)N1CCN(c2ccccn2)CC1 |  | inconclusive [inhibitor, single point]
17 | O=C(Nc1cccc(Cl)c1)Nc1nnc(CC2=CCCCC2)s1 |  | inconclusive [inhibitor, single point]
18 | CC(C)Cc1cc(C(=O)N2N=C(C(F)F)CC2(O)C(F)F)c2ccccc2n1 (centres undefined) |  | inconclusive [inhibitor, full curve, poor fit]
19 | CCCn1c(=O)c2c(nc3n2CCCN3CCc2ccc(OC)c(OC)c2)n(C)c1=O |  | inconclusive [inhibitor, partial curve]
20 | CN(C)c1ccc(/C=N/NC(=O)CCC(=O)NCc2ccccc2)cc1 | inactive: 16.6% | 
21 | CC(C)NC(=O)Nc1ccc(Br)cc1Cl |  | inconclusive [inhibitor, partial curve]
22 | Cc1ccc([N+](=O)[O-])cc1NC1OC(CO)C(O)C1O (centres undefined) | inactive: 13.9% | 
23 | Cc1ccc(S(=O)(=O)N2CCN(Cc3cc(C(C)(C)C)ccc3O)CC2)cc1 |  | inconclusive [inhibitor, single point]

Row | SMILES | activity change, negative = inhibition | Potency
24 | CS(=O)(=O)c1ccc(NC(=O)c2cccc(S(=O)(=O)N3CCN(Cc4ccccc4)CC3)c2)cc1 |  | active: 10 µM
25 | O=C(CSc1ccc(-c2ccccn2)nn1)Nc1cccc(F)c1 |  | inconclusive [inhibitor, single point]
26 | Cc1ccc(C)c(N2CCN(C(=O)c3cc(S(=O)(=O)N4CCOCC4)ccc3F)CC2)c1 |  | inconclusive [inhibitor, single point]
27 | CC(C)Oc1cccc(C(=O)C2CCCN(Cc3cnc(N4CCOCC4)s3)C2)c1 (centres undefined) |  | inconclusive [inhibitor, partial curve]
28 | CC(C)c1c(O)ccc2c1CC[C@H]1C(C)(C)CCC[C@]21C |  | active: 2 µM
29 | CCOC(=O)c1nc(NCc2ccccc2C)c2ccccc2n1 |  | inconclusive [inhibitor, single point]
30 | Nc1nc(CCl)nc(Nc2ccc3ccccc3c2)n1 |  | active: 0.891 µM
31 | CCOc1ccc(S(=O)(=O)N(C)c2ccc(OCC(=O)NCc3ccco3)cc2)cc1 |  | inconclusive [inhibitor, single point]
32 | Cn1c(C(=O)NN)cc2cc(Oc3ccccc3)ccc21 |  | inconclusive [inhibitor, full curve, poor fit]
33 | CCOC(=O)N1CCC(N(CCN(C)C)C(=S)Nc2cccc(C)c2)CC1 | inactive: 12.9% | 
34 | Cc1nc(C(=O)NC2CCOCC2)sc1C1(C)CC(c2ccccc2)=NO1 (centres undefined) | inactive: 0.804% | 
35 | O=C(N/N=C/c1ccc(OCc2ccccc2)cc1)c1ccc(O)cc1 |  | inconclusive [inhibitor, single point]
36 | COc1ccc(OC)c(CNC(=O)CCc2cn(C)c3ccccc23)c1 | inactive: -16.6% | 
37 | O=C(CN1C(=O)c2ccccc2C1=O)OCC(=O)c1ccccc1 | inactive: 9.11% | 
38 | Cc1ccc(Sc2cc(N3CCOCC3)nc(-c3ccccc3)n2)cc1 |  | inconclusive [inhibitor, partial curve]
39 | Cc1ccc(C(=O)NNC(=O)C(C)Oc2ccc3ccccc3c2)o1 (centres undefined) |  | inconclusive [inhibitor, full curve, poor fit]
40 | Cc1ccccc1N(CC(=O)NCC1CCCO1)C(=O)CCC(=O)Nc1nccs1 (centres undefined) | inactive: -0.597% | 
41 | O=C(NCc1cccnc1)C1CCCN(Cc2cnn(-c3ccccc3)c2-n2cccc2)C1 (centres undefined) | inactive: -11.7% | 
42 | Clc1cc2nc(-c3cccnc3Cl)[nH]c2cc1Cl | inactive: 2.68% | 
43 | CC(=O)Oc1c(-c2ccco2)oc2ccccc2c1=O |  | inconclusive [inhibitor, single point]
44 | CC(C)C1OC(c2cccc(NC(=O)c3cccs3)c2)OCC1(C)C (centres undefined) |  | inconclusive [inhibitor, single point]
45 | O=C(Nc1nc2c(Br)cccc2s1)C1CC1 |  | inconclusive [inhibitor, single point]
46 | CCN(CC)S(=O)(=O)c1ccc2[nH]c(=O)cc(C(=O)Nc3ccc(C)c(S(=O)(=O)N(CC)CC)c3)c2c1 |  | inconclusive [inhibitor, full curve, poor fit]

Row | SMILES | activity change, negative = inhibition | Potency
47 | Cc1ccc(-c2nn(-c3ccccc3)cc2CN(Cc2ccccc2)C(=O)c2ccco2)o1 |  | active: 10 µM
48 | Cc1ccc(S(=O)(=O)/N=C2\C=C(Nc3cccc(C(=O)O)c3)C(=O)c3ccccc32)cc1 | inactive: -6.61% | 
49 | COc1ccc(N(CC(=O)Nc2ccc(C)c(C)c2)S(=O)(=O)c2c(C)n[nH]c2C)cc1 |  | inconclusive [inhibitor, single point]
50 | COc1cc2oc(=O)cc(-c3cccc(-c4ccc(C(F)(F)F)cc4)c3)c2c(OC)c1OC |  | inconclusive [inhibitor, partial curve, poor fit]
51 | O=C(NCC1CCCO1)C(=Cc1cccc([N+](=O)[O-])c1)C(=O)NCC1CCCO1 (centres undefined) |  | inconclusive [inhibitor, single point]
52 | CCOC(=O)c1c(C)[nH]c(C(=O)OCC(=O)Nc2ccc(OCC)cc2)c1C |  | inconclusive [inhibitor, partial curve]
53 | C[C@H]1CN=C(Nc2ccccc2)N1CCCC1CCCCC1 |  | inconclusive [inhibitor, single point]
54 | Cc1cc(C)c(C#N)c(SCC(=O)N(CCC#N)c2ccc3c(c2)OCCO3)n1 |  | inconclusive [inhibitor, single point]
55 | O=C(N/N=C/c1cc([N+](=O)[O-])c(N2CCOCC2)cc1N1CCOCC1)c1cccnc1 |  | inconclusive [inhibitor, full curve, poor fit]
56 | COc1ccccc1C(=O)Nc1nc(-c2ccc3c(c2)OCCO3)cs1 | inactive: 6.33% | 
57 | CS(=O)(=O)Nc1ccc(C(=O)Nc2ccc3ccccc3c2)cc1 |  | inconclusive [inhibitor, full curve]
58 | CNc1sc(C(=O)c2ccccc2F)c(N)c1-c1nc2ccccc2s1 |  | active: 12.6 µM
59 | N#CC1=C(N)N2C(=C(C#N)C1c1ccccc1)Sc1ccccc12 (centres undefined) |  | inconclusive [inhibitor, single point]
60 | CCCc1cc(C(=O)Nc2ccc(C(C)=O)cc2)no1 | inactive: 6.84% | 
61 | Cc1ccc2nc(NCC(=O)O)nc(-c3ccccc3)c2c1 | inactive: 0.341% | 
62 | COCc1cc(C)[nH]c(=O)c1C#N | inactive: 25.3% | 
63 | Cc1c2cnn(CC(=O)NCCCN3CC(C)CC(C)C3)c(=O)c2c(C)n1Cc1ccc(Cl)cc1 (centres undefined) |  | inconclusive [inhibitor, single point]
64 | Cc1ccc2oc(=O)n(CCOc3ccccc3Cl)c2c1 |  | inconclusive [inhibitor, single point]
65 | C#CC1CCCCC1NC(=O)Nc1cnccc1C(F)(F)F (centres undefined) | inactive: -2.25% | 
66 | O=C1CCC(C(=O)Nc2ccc(Cl)cc2)N1 (centres undefined) | inactive: -9.1% | 
67 | OC(c1ccccc1)(c1ccc(F)cc1)C(c1ccccc1)N1CCOCC1 (centres undefined) |  | inconclusive [inhibitor, partial curve]
68 | O=C(COc1ccc(Cl)cc1)Nc1ccc(N2CCN(C(=O)c3ccco3)CC2)cc1 |  | active: 10 µM
69 | O=C(CSCc1c(Cl)cccc1Cl)Nc1ccc2c(c1)OCCO2 |  | inconclusive [inhibitor, single point]
